# Substitutions are numbered along the chain they refer to; changes in the protein carry UniProt numbers. The list shows a part of the results.
# T1: RBFOX1 RRM RbFoxmut (Fox-RRM*) (Homo sapiens, UniProt Q9NWB1 109-208, R118D;E147R;N151S;E152T)
# T1 sequence: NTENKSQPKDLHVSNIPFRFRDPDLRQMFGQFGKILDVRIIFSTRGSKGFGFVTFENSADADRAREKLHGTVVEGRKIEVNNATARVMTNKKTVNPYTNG
# B1: AGUAAGU (DNA:RNA)
# RNA: GGGAGACCGGAAUUCAGAUUGUCCAGUAAGUUUAAAUCCCGUCGUAGCCACCA
# DNA 1: CAATCTGAATTCCGGTCTCCC
# DNA 2: TGGTGGCTACGACGGGATT
# B2: ACACCGC (DNA:RNA)
# RNA: B1 RNA with G26C, U27A, A28C, A29C, U31C
# DNA 1: CAATCTGAATTCCGGTCTCCC
# DNA 2: TGGTGGCTACGACGGGATT
# B3: CAUGGUU (DNA:RNA)
# RNA: B1 RNA with A25C, G26A, A28G, A29G, G30U
# DNA 1: CAATCTGAATTCCGGTCTCCC
# DNA 2: TGGTGGCTACGACGGGATT
# B4: GCCAUCG (DNA:RNA)
# RNA: B1 RNA with A25G, G26C, U27C, A29U, G30C, U31G
# DNA 1: CAATCTGAATTCCGGTCTCCC
# DNA 2: TGGTGGCTACGACGGGATT
# B5: GAGACAC (DNA:RNA)
# RNA: B1 RNA with A25G, G26A, U27G, A29C, G30A, U31C
# DNA 1: CAATCTGAATTCCGGTCTCCC
# DNA 2: TGGTGGCTACGACGGGATT
# B6: AAUUGAA (DNA:RNA)
# RNA: B1 RNA with G26A, A28U, A29G, G30A, U31A
# DNA 1: CAATCTGAATTCCGGTCTCCC
# DNA 2: TGGTGGCTACGACGGGATT
# B7: GGUAAGU (DNA:RNA)
# RNA: B1 RNA with A25G
# DNA 1: CAATCTGAATTCCGGTCTCCC
# DNA 2: TGGTGGCTACGACGGGATT
# B8: GAUGACC (DNA:RNA)
# RNA: B1 RNA with A25G, G26A, A28G, G30C, U31C
# DNA 1: CAATCTGAATTCCGGTCTCCC
# DNA 2: TGGTGGCTACGACGGGATT
# B9: GAACUAC (DNA:RNA)
# RNA: GGGAGACCGGAAUUCAGAUUGUCCGAACUACUUAAAUCCCGUCGUAGCCACCA
# DNA 1: CAATCTGAATTCCGGTCTCCC
# DNA 2: TGGTGGCTACGACGGGATT
# B10: UUUAAAA (DNA:RNA)
# RNA: B1 RNA with A25U, G26U, G30A, U31A
# DNA 1: CAATCTGAATTCCGGTCTCCC
# DNA 2: TGGTGGCTACGACGGGATT
# B11: CUUCAAC (DNA:RNA)
# RNA: B9 RNA with G25C, A26U, A27U, U29A
# DNA 1: CAATCTGAATTCCGGTCTCCC
# DNA 2: TGGTGGCTACGACGGGATT
# B12: GUAAACC (DNA:RNA)
# RNA: B9 RNA with A26U, C28A, U29A, A30C
# DNA 1: CAATCTGAATTCCGGTCTCCC
# DNA 2: TGGTGGCTACGACGGGATT
# B13: GCUGAAG (DNA:RNA)
# RNA: B1 RNA with A25G, G26C, A28G, G30A, U31G
# DNA 1: CAATCTGAATTCCGGTCTCCC
# DNA 2: TGGTGGCTACGACGGGATT
# B14: CUUGGGC (DNA:RNA)
# RNA: B1 RNA with A25C, G26U, A28G, A29G, U31C
# DNA 1: CAATCTGAATTCCGGTCTCCC
# DNA 2: TGGTGGCTACGACGGGATT
# B15: UCAAGUU (DNA:RNA)
# RNA: B1 RNA with A25U, G26C, U27A, A29G, G30U
# DNA 1: CAATCTGAATTCCGGTCTCCC
# DNA 2: TGGTGGCTACGACGGGATT
# B16: CUAGGCU (DNA:RNA)
# RNA: B1 RNA with A25C, G26U, U27A, A28G, A29G, G30C
# DNA 1: CAATCTGAATTCCGGTCTCCC
# DNA 2: TGGTGGCTACGACGGGATT
# B17: GCUGCAC (DNA:RNA)
# RNA: B9 RNA with A26C, A27U, C28G, U29C
# DNA 1: CAATCTGAATTCCGGTCTCCC
# DNA 2: TGGTGGCTACGACGGGATT
# B18: UUGAUAG (DNA:RNA)
# RNA: B9 RNA with G25U, A26U, A27G, C28A, C31G
# DNA 1: CAATCTGAATTCCGGTCTCCC
# DNA 2: TGGTGGCTACGACGGGATT
# B19: CUUCCAG (DNA:RNA)
# RNA: B9 RNA with G25C, A26U, A27U, U29C, C31G
# DNA 1: CAATCTGAATTCCGGTCTCCC
# DNA 2: TGGTGGCTACGACGGGATT
# B20: GUAAGGG (DNA:RNA)
# RNA: B1 RNA with A25G, G26U, U27A, A29G, U31G
# DNA 1: CAATCTGAATTCCGGTCTCCC
# DNA 2: TGGTGGCTACGACGGGATT
# B21: CUAUAUG (DNA:RNA)
# RNA: B1 RNA with A25C, G26U, U27A, A28U, G30U, U31G
# DNA 1: CAATCTGAATTCCGGTCTCCC
# DNA 2: TGGTGGCTACGACGGGATT
# B22: UACAACU (DNA:RNA)
# RNA: B1 RNA with A25U, G26A, U27C, G30C
# DNA 1: CAATCTGAATTCCGGTCTCCC
# DNA 2: TGGTGGCTACGACGGGATT
# B23: CUGAGAC (DNA:RNA)
# RNA: B9 RNA with G25C, A26U, A27G, C28A, U29G
# DNA 1: CAATCTGAATTCCGGTCTCCC
# DNA 2: TGGTGGCTACGACGGGATT
# B24: ACUGUAA (DNA:RNA)
# RNA: B1 RNA with G26C, A28G, A29U, G30A, U31A
# DNA 1: CAATCTGAATTCCGGTCTCCC
# DNA 2: TGGTGGCTACGACGGGATT
# B25: CCCGGGU (DNA:RNA)
# RNA: B1 RNA with A25C, G26C, U27C, A28G, A29G
# DNA 1: CAATCTGAATTCCGGTCTCCC
# DNA 2: TGGTGGCTACGACGGGATT
# B26: AAUCUGA (DNA:RNA)
# RNA: B1 RNA with G26A, A28C, A29U, U31A
# DNA 1: CAATCTGAATTCCGGTCTCCC
# DNA 2: TGGTGGCTACGACGGGATT
# B27: CGAUCUA (DNA:RNA)
# RNA: B1 RNA with A25C, U27A, A28U, A29C, G30U, U31A
# DNA 1: CAATCTGAATTCCGGTCTCCC
# DNA 2: TGGTGGCTACGACGGGATT
# B28: GUAGCUC (DNA:RNA)
# RNA: B9 RNA with A26U, C28G, U29C, A30U
# DNA 1: CAATCTGAATTCCGGTCTCCC
# DNA 2: TGGTGGCTACGACGGGATT
# B29: UUUACGA (DNA:RNA)
# RNA: B1 RNA with A25U, G26U, A29C, U31A
# DNA 1: CAATCTGAATTCCGGTCTCCC
# DNA 2: TGGTGGCTACGACGGGATT
# B30: GCUCACC (DNA:RNA)
# RNA: B9 RNA with A26C, A27U, U29A, A30C
# DNA 1: CAATCTGAATTCCGGTCTCCC
# DNA 2: TGGTGGCTACGACGGGATT
# B31: AUGCCCG (DNA:RNA)
# RNA: B1 RNA with G26U, U27G, A28C, A29C, G30C, U31G
# DNA 1: CAATCTGAATTCCGGTCTCCC
# DNA 2: TGGTGGCTACGACGGGATT
# Target: T1, RBFOX1 RRM RbFoxmut (Fox-RRM*)
# Assay: EMSA; HiTS-Eq, 1 nM pool, 10 min; buffer printed only for the single-RNA assays: 10 mM Tris pH 7.5, 150 mM NaCl, 3.4 mM EDTA, 0.001% NP-40, 30 C
# Settings: tags: His6 N-terminal (pET28a); label: 5' 32P
# Method in brief: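 These values rest on relative association constants, computed from read-count changes of each RNA species versus the control reaction and normalised to the cognate motif. Reads came from free RNA recovered by 8% native PAGE after purified RbFox RRM (wild type or mutant) at increasing concentrations was equilibrated for 10 min in 50 µL with 1 nM of a 5′-radiolabelled pool with 7 randomized nucleotides and DNA-annealed flanks.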
row,Binder,binding signal
1,B1,0.125 KA relative to UGCAUGU
2,B2,0.122 KA relative to UGCAUGU
3,B3,0.131 KA relative to UGCAUGU
4,B4,0.0927 KA relative to UGCAUGU
5,B5,0.0441 KA relative to UGCAUGU
6,B6,0.1 KA relative to UGCAUGU
7,B7,0.0835 KA relative to UGCAUGU
8,B8,0.0621 KA relative to UGCAUGU
9,B9,0.0677 KA relative to UGCAUGU
10,B10,0.0929 KA relative to UGCAUGU
11,B11,0.0743 KA relative to UGCAUGU
12,B12,0.0731 KA relative to UGCAUGU
13,B13,0.0834 KA relative to UGCAUGU
14,B14,0.0946 KA relative to UGCAUGU
15,B15,0.0934 KA relative to UGCAUGU
16,B16,0.0903 KA relative to UGCAUGU

row,Binder,binding signal
1,B17,0.111 KA relative to UGCAUGU
2,B18,0.0947 KA relative to UGCAUGU
3,B19,0.0967 KA relative to UGCAUGU
4,B20,0.0569 KA relative to UGCAUGU
5,B21,0.132 KA relative to UGCAUGU
6,B22,0.0592 KA relative to UGCAUGU
7,B23,0.0947 KA relative to UGCAUGU
8,B24,0.132 KA relative to UGCAUGU
9,B25,0.0885 KA relative to UGCAUGU
10,B26,0.04 KA relative to UGCAUGU
11,B27,0.0692 KA relative to UGCAUGU
12,B28,0.071 KA relative to UGCAUGU
13,B29,0.0783 KA relative to UGCAUGU
14,B30,0.0793 KA relative to UGCAUGU
15,B31,0.113 KA relative to UGCAUGU

# — PMC9911399, “Two distinct binding modes provide the RNA-binding protein RbFox with extraordinary sequence specificity”
